The subject of this assay is Trichoderma virens ATCC 9645. Put plainly: growth yield (OD600) relative to untreated control; higher = less growth inhibition. The settings on record: compound concentration: 100 uM. The procedure, abridged:
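A biocide at 200 ng ml^−1 was co-applied to some wells, and library compounds were present in all test wells at 100 μM final. The wells held 100 μl of Trichoderma virens ATCC 9645 spores at 15,000 spores ml^−1 in potato dextrose broth, grown at 30 °C in 96-well plates, with OD600 read at 40 h and 72 h. Results are relative growth against the control without either agent, averaged across duplicate screens.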

Each structure is given as a SMILES string. Counter-ions that a name gives are not always drawn. ± gives the standard error. Screen size: about 1,300 compounds; about 75 (6%) showed an effect of 50% or more. This is one part of the list.

Regarding `CCCCS(=O)(=O)N[C@@H](Cc1ccc(OCCCCC2CCNCC2)cc1)C(=O)O` [Tirofiban hydrochloride], the growth yield (40 h) amounted to 102 ± 2.5% and the growth yield (72 h) stood at 103 ± 2.6%.
In the same order, the values of `COc1cc2nc(N3CCN(C(=O)c4ccco4)CC3)nc(N)c2cc1OC` [Prazosin hydrochloride] are 105 ± 5.7% and 101 ± 1.4%.
As to `COc1nc(C)nc(Cl)c1NC1=NCCN1` [Moxonidine], the growth yield came to 103.9 ± 0.95% (40 h) and 102 ± 1.5% (72 h).
As to `Cc1ccc(S(=O)(=O)NC(=O)NN2CC3CCCC3C2)cc1` (stereo unspecified) [Gliclazide], the growth yield by setting is: (40 h) 104.8 ± 0.32%; (72 h) 106 ± 2.4%.
`CC(=O)N[C@@H](CC(=O)N[C@@H](CCC(=O)O)C(=O)O)C(=O)O` [Spaglumic acid]: the growth yield reads like this: (40 h) 101 ± 3.5%; (72 h) 99.5 ± 1.4%.
With `C#CCN(C)Cc1ccccc1` [Pargyline hydrochloride], the growth yield was determined as 105 ± 2.1% (40 h) and 107 ± 2.9% (72 h).
Regarding `COc1ccc2cc(CCC(C)=O)ccc2c1` [Nabumetone], the growth yield turned out to be 52.7 ± 5.1% (40 h) and 61.5 ± 2.9% (72 h).
In the same order, the values of `CCn1cc(C(=O)O)c(=O)c2ccc(C)nc21` [Nalidixic acid sodium salt] are 84.82 ± 0.32% and 104 ± 2.3%.
In the same order, the values of `CCN(CC)CCNC(=O)c1cc(S(C)(=O)=O)ccc1OC` [Tiapride hydrochloride] are 104 ± 4.8% and 104 ± 4.7%.
On the same counts, the results for `O=C(CCCN1CC=C(n2c(=O)[nH]c3ccccc32)CC1)c1ccc(F)cc1` [Droperidol] are 104 ± 3% and 108 ± 1.8%.
Consider `CO[C@H]1/C=C/O[C@@]2(C)Oc3c(C)c(O)c4c(c3C2=O)C2=NC3(CCN(CC(C)C)CC3)NC2=C(NC(=O)/C(C)=C\C=C\[C@H](C)[C@H](O)[C@@H](C)[C@@H](O)[C@@H](C)[C@H](OC(C)=O)[C@@H]1C)C4=O` [Rifabutin], for which the growth yield came out at 106 ± 4.3% (40 h) and 103.1 ± 0.94% (72 h).
For `O=C(Cn1ccnc1[N+](=O)[O-])NCCO` [Etanidazole], the growth yield (40 h) came out at 101 ± 2.2% and the growth yield (72 h) stood at 98 ± 1.9%.
In the same order, the values of `CN(C)CCN(Cc1cccs1)c1ccccn1` [Methapyrilene hydrochloride] are 97.4 ± 1.1% and 100 ± 2.9%.
On the same counts, the results for `COc1c(O[C@@H]2O[C@H](CO)[C@@H](O)[C@H](O)[C@H]2O)cc2c(c1OC)-c1ccc(SC)c(=O)cc1[C@@H](NC(C)=O)CC2` [Thiocolchicoside] are 101 ± 1.4% and 103 ± 2.2%.
Consider `Clc1ccc(C(Cn2ccnc2)OCc2c(Cl)cccc2Cl)c(Cl)c1` (stereo unspecified) [Isoconazole], for which the growth yield was 2.06 ± 1.4% (40 h) and 1.68 ± 1.1% (72 h).
Regarding `NC(=O)N1c2ccccc2C=Cc2ccccc21` [Carbamazepine], the growth yield reads like this: (40 h) 102 ± 1.6%; (72 h) 99.21 ± 0.42%.
Take `Nc1nc(F)nc2c1ncn2[C@@H]1O[C@H](CO)[C@@H](O)[C@@H]1O` [Fludarabine]: the growth yield (40 h) was found to be 96.9 ± 4.8% and the growth yield (72 h) came to 95 ± 1.5%.
In the same order, the values of `CC[C@H]1OC(=O)[C@H](C)[C@@H](O[C@H]2C[C@@](C)(OC)[C@@H](O)[C@H](C)O2)[C@H](C)[C@@H](O[C@@H]2O[C@H](C)C[C@H](N(C)C)[C@H]2O)[C@](C)(O)C[C@@H](C)/C(=N\OCOCCOC)[C@H](C)[C@@H](O)[C@]1(C)O` [Roxithromycin] are 97.85 ± 0.64% and 96.7 ± 1.5%.
On to `CC(=O)N[C@@H](CC(C)C)C(=O)O` [N-Acetyl-L-leucine], for which the growth yield runs as follows: (40 h) 103 ± 3%; (72 h) 103 ± 2.7%.
For the molecule `Nc1nc(=O)c2nc(CNc3ccc(C(=O)N[C@@H](CCC(=O)O)C(=O)O)cc3)cnc2[nH]1` [Folic acid], the growth yield by setting is: (40 h) 102 ± 1.4%; (72 h) 104.7 ± 0.42%.
For the molecule `CC(C)C(=O)OCC(=O)[C@@]12O[C@H](C3CCCCC3)O[C@@H]1C[C@H]1[C@@H]3CCC4=CC(=O)C=C[C@]4(C)[C@H]3[C@@H](O)C[C@@]12C` [Ciclesonide], the growth yield (40 h) worked out at 100 ± 3.3% and the growth yield (72 h) worked out at 98.48 ± 0.32%.
On the same counts, the results for `O=C1CN2Cc3c(ccc(Cl)c3Cl)N=C2N1` [Anagrelide] are 98.2 ± 7.9% and 96.7 ± 7.3%.
Consider `CC(C)NCC(O)COc1ccc(COCCOC(C)C)cc1` (stereo unspecified) [Bisoprolol fumarate], for which the growth yield reads like this: (40 h) 104 ± 2.1%; (72 h) 104 ± 1.4%.
Consider `Nc1nc(=S)c2ncn([C@@H]3O[C@H](CO)[C@@H](O)[C@H]3O)c2[nH]1` [Thioguanosine], for which the growth yield (40 h) stood at 86.2 ± 5.6% and the growth yield (72 h) is 97 ± 1.6%.
In the same order, the values of `NCCCC[C@H](N[C@@H](CCc1ccccc1)C(=O)O)C(=O)N1CCC[C@H]1C(=O)O` [Lisinopril] are 97.53 ± 0.95% and 101 ± 1.3%.
In the same order, the values of `CC(C)(C)NC[C@H](O)COc1nsnc1N1CCOCC1` [Timolol maleate salt] are 100.7 ± 0.32% and 97.3 ± 2.5%.
For `O=C(Nc1cccc2c(=O)cc(-c3nnn[nH]3)oc12)c1ccc(OCCCCc2ccccc2)cc1` [Pranlukast], the growth yield is 98.5 ± 6% (40 h) and 95.8 ± 3.7% (72 h).
On the same counts, the results for `CCOC(=O)[C@H](CCc1ccccc1)N[C@H]1CCc2ccccc2N(CC(=O)O)C1=O` [Benazepril hydrochloride] are 104 ± 3.5% and 105 ± 2.1%.
On the same counts, the results for `COC1=C(OC)C(=O)C(CCCCCCCCCCO)=C(C)C1=O` [Idebenone] are 80.7 ± 4.5% and 86.6 ± 3.1%.
`CCOC(=O)OC(C)OC(=O)[C@@H]1N2C(=O)[C@@H](NC(=O)[C@H](N)c3ccccc3)[C@H]2SC1(C)C` (stereo partly specified) [Bacampicillin hydrochloride] came in with a growth yield (40 h) of 102 ± 4% and a growth yield (72 h) of 99.3 ± 6%.
In the case of `CC(COc1ccccc1)N(CCCl)Cc1ccccc1` (stereo unspecified) [Phenoxybenzamine hydrochloride], the growth yield by setting is: (40 h) 104 ± 4.6%; (72 h) 103 ± 4.2%.
On the same counts, the results for `CCCNC(C)C(=O)Nc1ccccc1C` (stereo unspecified) [Prilocaine hydrochloride] are 106.1 ± 0.95% and 105.4 ± 0.73%.
With `COc1ccc(CN(CCN(C)C)c2ccccn2)cc1` [Pyrilamine maleate], the growth yield is, setting by setting: (40 h) 101 ± 1.1%; (72 h) 103 ± 1.5%.

The values are drawn from the supplement of paper PMC8007513.
